Reference: the supplement of paper PMC9446081
The whole screen tested about 39,000 compounds, of which about 220 (0.56%) showed activity. The list shows a part of the results.

System: Escherichia coli K-12 BW25113
Assay: relative growth (OD600 normalised to plate interquartile mean) (fraction); higher = less growth inhibition, active = 0.2 or less
Details: 50 µM; LB; incubation time: overnight (16-24 h)
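Also: static incubation at 37 °C against the wild-type strain, values averaged over two biological replicates.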

Structure (SMILES) | relative growth
O=C(/C=C/c1cccc(-c2cn(-c3ccc(C[C@H]4C(=O)O[C@@H](Cc5ccccc5)[C@H]5[C@@H]6C=CCCC=C6CN54)cc3)nn2)c1)NO | inactive: 0.989
O=C(CCCCCNC(=O)OCc1ccc(CO[C@H]2C[C@@H](c3ccc(C(F)(F)F)cc3)C=C(C(=O)NC3CC3)O2)cc1)NO | inactive: 0.94
C[C@H](N)C(=O)N[C@@]1(C(=O)O)C[C@@H](Sc2nnc[nH]2)[C@H]2[C@H](C(=O)O)[C@H]21 | inactive: 0.993
C[C@@H]1CN([C@@H](C)CO)C(=O)c2cc(NS(=O)(=O)c3ccc(Cl)cc3)ccc2O[C@@H]1CN(C)Cc1ccc(C(=O)Nc2ccccc2N)cc1 | inactive: 1.01
O=C(CN1CCOCC1)NCC[C@H]1CC[C@H](NS(=O)(=O)c2ccc(F)cc2)[C@H](CO)O1 | inactive: 0.976
CCS(=O)(=O)Nc1ccc2c(c1)C(=O)N(C)[C@@H]1CC[C@H](CC(=O)N[C@H]3CCN(Cc4ccccc4)C3)O[C@H]1CO2 | inactive: 1.02
COc1ccc(NC(=O)Nc2ccc3c(c2)CC(=O)N([C@H](C)CO)C[C@@H](C)[C@H](CN(C)C(=O)Nc2cccc4ccccc24)O3)cc1 | inactive: 0.965
O=C(C[C@@H]1CC[C@H]2[C@@H](COC[C@H](O)CN2C(=O)Nc2ccc(C(F)(F)F)cc2)O1)NCc1ccncn1 | inactive: 1
C[C@H]1CN([C@@H](C)CO)C(=O)c2cc(NS(=O)(=O)c3ccc(Cl)cc3)ccc2O[C@@H]1CN(C)Cc1ccc(-c2ccccc2)cc1 | inactive: 0.858
C[C@H](CO)N1C[C@H](C)[C@@H](CN(C)Cc2ccc(Cl)c(Cl)c2)Oc2ccc(NC(=O)NC3CCCCC3)cc2C1=O | inactive: 0.996
CC(C)(C)C(=O)OCOP(=O)(COCCn1cnc2c(N)ncnc21)OCOC(=O)C(C)(C)C | inactive: 1.15
Cc1ccc(S(=O)(=O)Nc2ccc3c(c2)C(=O)N([C@@H](C)CO)C[C@H](C)[C@H](CN(C)S(=O)(=O)c2ccc(F)cc2)O3)cc1 | inactive: 0.886
CO[C@H]1CN(C)C(=O)c2ccc(NC(=O)c3ccc(F)cc3)cc2OC[C@@H](C)N(C(=O)CN(C)C)C[C@@H]1C | inactive: 0.986
C[C@H]1CCCCO[C@@H](CN(C)C(=O)C2CCCCC2)[C@@H](C)CN([C@@H](C)CO)C(=O)c2cc(NC(=O)c3ccncc3)ccc2O1 | inactive: 0.998
COc1ccc(S(=O)(=O)N(C)C[C@@H]2Oc3cc(-c4ccccc4OC)ccc3S(=O)(=O)N([C@@H](C)CO)C[C@H]2C)cc1 | inactive: 1
Cl.O=C1NCC2(CCN(CCc3ccccc3)CC2)O1 | inactive: 0.96
